Data from PubChem BioAssay AID1030 (National Center for Advancing Translational Sciences (NCATS), 2008).
Out of some 220,000 compounds screened, about 16,000 (7.3%) were called active. The shares of active, inactive and inconclusive entries below differ from those in the screen. Calls follow the shape of the dose curve; as a rule, active = well fitted inhibition curve with a large enough effect (not every such curve was filed as active); inconclusive = small, poorly fitted or top-dose-only effect, or another doubt; inactive = no such curve, though single readings can be large or run the other way. Potencies of inconclusive entries are left out as doubtful fits.

molecular target: Aldehyde dehydrogenase 1A1 (Homo sapiens) (UniProt P00352); assay: qHTS Assay for Inhibitors of Aldehyde Dehydrogenase 1 (ALDH1A1); details: Purified ALDH1A1, NADH fluorescence, propionaldehyde substrate; series mostly up to 75.3 µM
Chain of UniProt P00352 (P00352 whole entry, looked up): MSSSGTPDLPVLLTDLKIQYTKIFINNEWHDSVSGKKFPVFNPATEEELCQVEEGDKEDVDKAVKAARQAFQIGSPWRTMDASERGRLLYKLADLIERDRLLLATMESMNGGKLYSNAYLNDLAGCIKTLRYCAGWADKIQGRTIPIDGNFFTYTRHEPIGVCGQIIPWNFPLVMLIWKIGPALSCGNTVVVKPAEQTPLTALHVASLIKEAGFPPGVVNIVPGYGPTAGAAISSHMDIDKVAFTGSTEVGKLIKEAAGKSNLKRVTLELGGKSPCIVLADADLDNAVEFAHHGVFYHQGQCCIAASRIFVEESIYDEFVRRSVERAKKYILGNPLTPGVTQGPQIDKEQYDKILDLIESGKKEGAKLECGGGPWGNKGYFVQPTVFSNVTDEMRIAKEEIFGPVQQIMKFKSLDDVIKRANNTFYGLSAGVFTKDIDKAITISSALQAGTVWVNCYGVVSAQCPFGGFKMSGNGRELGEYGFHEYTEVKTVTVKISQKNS
Potency is read from the fitted curve at half-maximal effect; tags tell the direction and shape of the fitted curve.

Row | SMILES | Potency
1 | O=C(CCSCc1ccccc1F)NCCc1ccccc1 | inconclusive [inhibitor, single point]
2 | CCN(CCO)c1ccc(NC(=S)Nc2cccc(S(=O)(=O)N(C)C)c2)cc1 | active: 25.1 µM
3 | COc1ccc(OC)c(NC(=O)CN2C(=O)C3(OCCCO3)c3ccccc32)c1 | inconclusive [inhibitor, single point]
4 | CCOC(=O)c1sc2nc(CC(=O)OC)nc(NCC(=O)OC)c2c1C | inconclusive [inhibitor, partial curve]
5 | CCOC(=O)c1c(-c2ccc(OC)cc2)csc1NC(=O)CSc1nnc(C)c(=O)[nH]1 | inconclusive [inhibitor, single point]
6 | COc1ccc(-c2nnc(NC(=O)C(C)C)o2)cc1 | inactive
7 | O=C(N1CCCCC1)N1CCN(C(=O)N2CCCCC2)CC1 | inactive
8 | CC(C)[C@@H](CC(=O)N[C@@H]1CCNC[C@H]1C(=O)N[C@H](CC(=O)N[C@@H](CCC(=O)O)CC(=O)O)Cc1ccccc1)NC(=O)C[C@H](Cc1ccccc1)NC(=O)[C@@H]1CNCC[C@H]1N | inactive
9 | COc1cc(C(=O)N2CCN(c3cc(Cl)ccc3Cl)CC2)cc(OC)c1OC | inactive
10 | COc1cc(OC)c(C2N(c3ccccn3)C(=O)C3CCCN32)cc1OC (centres undefined) | inactive
11 | CCCc1cc(-c2n[nH]c(C(=O)OCC)c2-c2cscn2)c(O)cc1O | active: 8.91 µM
12 | CCN(C(=O)COC(=O)c1n[nH]c2ccccc12)C1CCS(=O)(=O)C1 (centres undefined) | inconclusive [inhibitor, partial curve]
13 | CS(=O)(=O)N1CCc2cc(-c3csc(NC(=O)C(c4ccccc4)c4ccccc4)n3)ccc21 | inconclusive [inhibitor, single point]
14 | Nc1cc2nn(-c3ccccc3)nc2cc1Cl | inconclusive [inhibitor, full curve]
15 | CCOC(=O)c1ccc(N2C(=O)C(CC(=O)NC)N(CCc3ccc(OC)c(OC)c3)C2=S)cc1 (centres undefined) | inconclusive [inhibitor, full curve]
16 | Cn1c(=O)cc(SCC(=O)N2CCCC2)c2cc(Cl)ccc21 | inconclusive [inhibitor, partial curve]
17 | COC(=O)c1ccccc1NC(=O)C1CCCN(S(C)(=O)=O)C1 (centres undefined) | inconclusive [inhibitor, partial curve]
18 | O=c1[nH]c2ccc(S(=O)(=O)N3CCN(c4ccccc4F)CC3)cc2s1 | inactive
19 | O=[N+]([O-])c1cc(F)c(N2CCOCC2)cc1N1CCCCC1 | active: 14.1 µM
20 | NC(CSC12CC3CC(CC(C3)C1)C2)C(=O)O (centres undefined) | active: 12.6 µM
21 | c1ccc(Cn2c(SCCN3CCOCC3)nnc2-c2cccnc2)cc1 | inconclusive [inhibitor, single point]
22 | Cc1cccc(NC(=O)Cn2c(/C=C/c3ccccc3)nc3ccccc32)c1 | inconclusive [inhibitor, partial curve]
23 | O=C(Cc1cc(=O)[nH][nH]1)N/N=C/c1c(F)cccc1Cl | inactive
24 | CC1CCN(Cc2c(O)ccc3c2O/C(=C\c2ccco2)C3=O)CC1 | active: 25.1 µM
25 | COc1ccc(OCCCSc2ncccn2)cc1 | inconclusive [inhibitor, partial curve]

Row | SMILES | Potency
26 | N#C/C(=C/c1ccc(N2CCOCC2)c([N+](=O)[O-])c1)C(N)=O | inactive
27 | c1nc2sc3c(c2c2nnnn12)CCCC3 | inconclusive [inhibitor, single point]
28 | Nc1ncnc(Nc2c(F)cccc2F)n1 | inactive
29 | COc1ccccc1/C=C/C=N\N1CCN(Cc2ccccc2Cl)CC1 | active: 20 µM
30 | Cc1ccc(-c2csc(=S)n2CC(=O)OCC(=O)NCc2ccc(F)cc2)cc1 | active: 12.6 µM
31 | NNC(=O)c1ccc2nc(-c3ccc(Br)cc3)cn2c1 | inconclusive [inhibitor, partial curve]
32 | C=CCCC(=O)Nc1nc(C)c(-c2csc(Nc3ccc(Cl)cc3Cl)n2)s1 | inconclusive [inhibitor, single point]
33 | Cc1cc(-c2ccc(Cl)cc2)c(C#N)c(N)n1 | inconclusive [inhibitor, single point]
34 | CC1=C(C)CC2C(=O)N(c3cccc4ccccc34)C(=O)C2C1 (centres undefined) | active: 12.6 µM
35 | CCOC(=O)c1c(NC(=O)C(=O)N/N=C/c2ccccc2OC)sc2c1CCCCC2 | inconclusive [inhibitor, single point]
36 | Nc1nc(NCc2ccco2)nc(N2CCCCC2)c1[N+](=O)[O-] | active: 3.98 µM
37 | CCn1c(/C=C/Nc2ccccc2)[n+](CC)c2ccc(Cl)cc21 | inactive
38 | COC(=O)CNC(=O)CNC(=O)Nc1ccccc1 | inactive
39 | Cc1cc(C)c(C#N)c(SCCS(=O)(=O)Cc2ccc(Cl)cc2)n1 | active: 5.01 µM
40 | COC(=O)c1ccc(SCc2cnc(Cl)s2)cc1 | inconclusive [inhibitor, single point]
41 | CN(Cc1cccnc1)Cc1cn(Cc2ccccc2)nc1-c1ccc2c(c1)OCO2 | inactive
42 | Cc1ccc(OCCn2cc(C(=S)N3CCCC3)c3ccccc32)cc1C | inconclusive [inhibitor, single point]
43 | O=C(Nc1cccc(-c2cc3ccccc3oc2=O)c1)c1ccc(Br)o1 | inconclusive [inhibitor, single point]
44 | COc1ccc(-n2cnnc2SCCC#N)cc1 | inconclusive [inhibitor, single point]
45 | CN(C)c1c2ccccc2nc2c(F)c(F)c(F)c(F)c12 | inconclusive [inhibitor, partial curve]
46 | CCN(CC)CCNC(=O)c1ccc(NS(=O)(=O)c2ccc3c(c2)OCCO3)cc1 | inactive
47 | O=C(CCCn1c(=S)[nH]c2cc3c(cc2c1=O)OCO3)N1CCN(c2ncccn2)CC1 | inactive
48 | COc1ccccc1/C=C/C=N/n1c(-c2cc(-c3ccccc3)n[nH]2)n[nH]c1=S | inconclusive [inhibitor, single point]
49 | CC1CCN(c2ccccc2NC(=S)NC(=O)c2cccs2)CC1 | inconclusive [inhibitor, single point]
50 | O=C1/C(=C/c2ccc3c(c2)OCO3)CCC/C1=C\c1ccc2c(c1)OCO2 | inconclusive [inhibitor, single point]

Row | SMILES | Potency
51 | Cc1cc(C)cc(-n2c(C)cc(/C=N/NC(=O)c3ccncc3)c2C)c1 | inconclusive [inhibitor, single point]
52 | CC1CC2(NC(=O)NC2=O)C(C)CN1C (centres undefined) | inactive
53 | Cc1nn(C)c(C)c1S(=O)(=O)N1CCCC(C(=O)N2CCN(c3ccc(Cl)cc3)CC2)C1 (centres undefined) | inconclusive [inhibitor, single point]
54 | CCCCN1CCc2c([nH]c3ccc(C)cc23)C1=O | inconclusive [inhibitor, single point]
55 | COc1ccc(C(=O)N2CCN=C2SC)cc1OC | inconclusive [inhibitor, single point]
56 | COc1ccc(CNc2ncncc2-c2ccccc2Cl)c(OC)c1 | inconclusive [inhibitor, single point]
57 | COc1ccc(OC)c(CN2CCCC(C(=O)c3ccccc3SC)C2)c1 (centres undefined) | inactive
58 | Nc1cc(=O)[nH]c(SCc2nnnn2-c2ccc(Cl)cc2)n1 | inactive
59 | O=C1/C(=C\c2ccco2)CCC/C1=C\c1ccco1 | active: 5.62 µM
60 | C[C@@H]1C(c2ccccc2)=NN(c2ccc(Br)cc2)[C@H]1C(=O)N1CCOC1=O | inconclusive [inhibitor, partial curve]
61 | c1ccc(CNc2nc(-c3cccs3)nc3ccccc23)nc1 | inconclusive [inhibitor, single point]
62 | Cc1ccc(COc2ccc(Br)cc2/C=N/O)cc1 | inconclusive [inhibitor, single point]
63 | O=C(NC(=S)Nc1cccc(Cl)c1N1CCCC1)c1ccc(-c2cccc([N+](=O)[O-])c2)o1 | active: 28.2 µM
64 | COC(=O)c1ccccc1NC(=O)c1cccs1 | inactive
65 | CC1(C)Cc2ccccc2-c2nc(NCCO)n(-c3ccccc3)c(=O)c21 | inconclusive [inhibitor, partial curve]
66 | Cc1cc(C)n2cc(CSc3nnnn3-c3ccccc3C)nc2n1 | inconclusive [inhibitor, partial curve]
67 | N#Cc1ccc(N2C(=O)[C@@H]3C(C(=O)c4cnccn4)=NN[C@@H]3C2=O)cc1 | active: 14.1 µM
68 | O=C(CCl)Nc1nc(-c2ccco2)c(-c2ccco2)s1 | active: 0.398 µM
69 | COc1ccccc1Oc1cc(-n2nc(C)cc2C)ncn1 | inconclusive [inhibitor, single point]
70 | Cc1ccc(Nc2nnc(SCc3cc(=O)n4ccsc4n3)s2)c(C)c1 | inconclusive [inhibitor, single point]
71 | c1ccc(-c2ccc(-c3ccc(C4=NCCN4)cc3)o2)cc1 | inconclusive [inhibitor, partial curve]
72 | S=c1[nH]nc(CSCc2ccccc2Cl)n1C1CCCCC1 | inconclusive [inhibitor, partial curve, poor fit]
73 | CCn1c(N2CCN(CC(=O)c3c[nH]c4ccccc34)CC2)nc2c1c(=O)[nH]c(=O)n2C | active: 22.4 µM
74 | COc1ccc(-n2c(=O)c(C)nc3cnc(Oc4cccc(Cl)c4)nc32)cc1 | inconclusive [inhibitor, partial curve]
